Measurements taken from US20100204131A1, “USE OF A PEPTIDE AS A THERAPEUTIC AGENT” (priority 2007, published 2010).
No end group written: not given here.

System: RAW 264.7 (Mouse leukaemic monocyte macrophage cell line) cells
Assay: Phagocytosis assay
Conditions: 10 micrograms per ml, Fluorescein-labeled Escherichia coli, flow cytometry

Row | Substance | effect on the phagocytic activity of murine macrophages (increase)
1 | Ala-Ser-Gln-Phe-Glu-Thr-Ser-OH (ASQFETS-OH) [peptide 2] | 31.4%
2 | Ser-Tyr-Ser-Met-Glu-His-Phe-Arg-Trp-Gly-Lys-Pro-Val-Gly-Lys-Lys-Arg-Arg-Pro-Val-Lys-Val-Tyr-Pro-OH [peptide 1] | no inhibitory or activating effects
